Out of some 52,000 compounds screened, about 1,700 (3.3%) were called active. Cut-off read from the data, not from the text of the source: active = survival mostly below about 52% (no sharp cut-off); inactive = mostly above about 56%. This is one part of the list.
tested on: Wild type; assay: growth inhibition of S. aureus wild type versus tarO mutant, primary screen, teichoic acid synthesis inhibitors, RN4220, OD600 (AID 463173); conditions: S. aureus RN4220 wild type/DeltatarO growth, OD600, 18 h, active compounds read low, screened at 18.75 µg/mL (by protocol)

SMILES | survival
COc1ccc(CN(C(=O)Nc2ccccc2)c2ccccn2)cc1OC | inactive: 93%
CC(C)NC(=O)c1cnc2sc(N3CCCCCC3)nn2c1=O | inactive: 74%
Cc1ccc(S(=O)(=O)N(Cc2nc(-c3ccc(Cl)cc3)no2)C2CCCCC2)cc1 | inactive: 84%
O=C(Cn1nnc2ccccc21)Nc1cc(C(F)(F)F)ccc1Cl | inactive: 105%
COc1ccccc1N1CCN(CCC(=O)Nc2cccc(F)c2)CC1 | inactive: 76%
O=C(NCc1cccnc1)c1ccc(S(=O)(=O)N2CCCCC2)cc1 | inactive: 104%
CCOCCCNC(=O)N1CCN(S(=O)(=O)c2ccc3c(ccn3C)c2)CC1 | inactive: 118%
CN1CC=C2C(C#N)=C(N)C(C#N)(C#N)C(Cc3ccccc3)C2C1 (stereo not drawn) | inactive: 98%
COc1ccc(-c2noc(-c3ccc(N4CCOCC4)c([N+](=O)[O-])c3)n2)cc1OC | inactive: 84%
CCOC(=O)c1ccc(NS(=O)(=O)c2cc3c(cc2C)n(C)c(=O)c(=O)n3C)cc1 | inactive: 73%
Cn1c(=O)c2c(SCC(=O)NCC3CCCO3)nc(-c3ccccc3F)nc2n(C)c1=O (stereo not drawn) | inactive: 80%
COc1cccc(/C=C(\C#N)c2nc3ccc(C)cc3[nH]2)c1 | inactive: 53%
COc1ccc(CNc2nc(-c3ccc(OC)c(OC)c3)cc(C(F)(F)F)n2)cc1 | inactive: 27%
CCCCSCCCNC(=O)CN1C(=O)COc2ccc(S(=O)(=O)N3CCCC3)cc21 | inactive: 77%
CCOc1ccc(NC(=O)CSc2oc(-c3cccs3)nc2S(=O)(=O)c2ccc(Cl)cc2)cc1 | inactive: 79%
O=C(Cn1c(=O)n(-c2ccccc2)c(=O)c2ccc(C(=O)NCc3ccc4c(c3)OCO4)cc21)Nc1ccc(Br)cc1F | inactive: 130%
O=C(Cn1nc(C(F)F)cc1C1CC1)N1CCCC1 | inactive: 110%
COc1ccc(NC(=O)Cn2c(=O)n(-c3ccccc3)c(=O)c3ccc(C(=O)NCc4ccc5c(c4)OCO5)cc32)cc1 | inactive: 154%
Cc1cc(NC(=O)c2ccc(Cl)c(Cl)c2)ccc1-c1cc2ccccc2oc1=O | inactive: 78%
Cc1ccc(CNC(=O)CSc2nc3ccsc3c(=O)n2-c2ccc(C(=O)O)cc2)cc1 | inactive: 76%
CCN(CCCNC(=O)c1cc2cc3cc(OC)ccc3nc2s1)c1ccccc1 | inactive: 83%
Oc1cccc(Nc2nc(-c3ccccc3)nc3ccccc23)c1 | inactive: 19%

SMILES | survival
CC1(C)C(=O)N(CC(=O)Nc2ccc(OC(F)(F)F)cc2)c2ccccc21 | inactive: 100%
CCCSc1ncc(Cl)c(C(=O)Nc2ccc(CC)cc2)n1 | inactive: 86%
O=C(CSC1=Nc2ccccc2C2=NC(CCC(=O)NC3CCCCC3)C(=O)N12)Nc1cccc(Cl)c1 (stereo not drawn) | inactive: 84%
CCOC(=O)c1c(C)[nH]c(C)c1S(=O)(=O)N(C)CC(=O)Nc1cc(Cl)ccc1OC | inactive: 128%
CCOC(=O)C1CCC(CN(Cc2c(Cl)cccc2Cl)S(=O)(=O)c2ccc(F)c(C)c2)CC1 (stereo not drawn) | inactive: 70%
Cc1cccc(NC(=O)c2ccc(F)c(S(=O)(=O)N(C)C3CCCCC3)c2)c1 | inactive: 57%
CCOc1ccc(C(=O)N2CCN(Cc3cc(=O)n4nc(-c5cccc(OC)c5)sc4n3)CC2)cc1 | inactive: 73%
O=C(COc1ccc(Br)cc1)N1CCOCC1 | inactive: 99%
COc1ccc(NC(=O)C(C)n2nc(C)c3c(C)n(-c4ccccc4)nc3c2=O)cc1Cl (stereo not drawn) | inactive: 79%
CCOCCCNC(=O)C(c1ccc(Cl)cc1)N(Cc1ccc2c(c1)OCO2)C(=O)c1ccccc1O (stereo not drawn) | inactive: 78%
CC(=O)Nc1ccc(Nc2nc3ccc(C)cc3n3nnnc23)cc1 | inactive: 73%
COc1cc(C=Nc2ccc3[nH]c(=O)[nH]c3c2)ccc1OC(C)=O | inactive: 103%
Cc1ccc(C)c(OCCCn2c(-c3ccc(Cl)cc3)nc3ccccc3c2=O)c1 | inactive: 76%
COc1ccc(-c2nc(S(=O)(=O)c3ccccc3)c(N3CCCCC3)o2)cc1 | inactive: 76%
CCN(Cc1nc(-c2ccc(OC)cc2)oc1C)S(=O)(=O)c1ccc(Cl)cc1 | inactive: 74%
COc1ccc(N2CCN(C(=O)c3cccn4c(=O)c5ccc(Cl)cc5nc34)CC2)cc1 | inactive: 132%
CCN1C(=O)c2ccccc2Sc2ccc(NC(=O)Nc3ccc(C(C)=O)cc3)cc21 | inactive: 67%
Cc1ccc2oc(=O)c3cnn(CC(=O)Nc4ccc(Br)cc4C)c3c2c1 | inactive: 86%
Cc1ccccc1CNCCCSc1nnnn1-c1ccccc1 | inactive: 87%
Cc1ccc(S(=O)(=O)NCCN2C(=N)N(c3nc(N(C)C)nc(N(C)C)n3)CC2=O)cc1 | inactive: 102%
CCc1cccc(C)c1NC(=O)COCc1cc(-c2ccc3c(c2)OCO3)on1 | inactive: 95%
CC1CCCCN1C(=O)CSc1nc2ccccc2nc1Cc1ccc(Cl)cc1 (stereo not drawn) | inactive: 85%

SMILES | survival
O=C(c1ccco1)N(Cc1cccnc1)c1nc2c(F)cccc2s1 | inactive: 112%
CCc1ccccc1NC(=O)C(=O)c1cc(C)n(-c2ccccc2F)c1C | inactive: 91%
Cc1cc(C)c(Cn2c(C)c(CNCc3ccccc3C)c(C(=O)O)c2C)c(C)c1 | inactive: 95%
Cc1ccc(NCc2nc3ccccc3n2CCOc2ccccc2C)cc1 | active: -20%
Nc1c(C(=O)Nc2ccccc2Cl)nnn1Cc1cccc(Cl)c1 | inactive: 96%
COc1cc(OC)cc(-c2nc3nc(C)c(CCC(=O)Nc4ccc(C)cc4)c(C)n3n2)c1 | inactive: 88%
Cc1cc2c(cc1S(=O)(=O)CCC(=O)Nc1ccc(OC(F)(F)F)cc1)OCC(=O)N2 | inactive: 81%
COc1ccc(NC(=O)Nc2cccc(C)n2)c(OC)c1 | inactive: 72%
Cc1c2cnn(CC(=O)O)c(=O)c2c(C)n1Cc1cccc(Cl)c1 | inactive: 80%
O=C(CC1N=C2c3ccccc3N=C(SCc3ccc(Cl)cc3)N2C1=O)NC1CCCCC1 (stereo not drawn) | inactive: 68%
CCNc1nc2c(c(=O)n(C)c(=O)n2C)n1CC(O)COc1ccccc1 (stereo not drawn) | inactive: 72%
Cc1c(CCNS(=O)(=O)c2ccccc2)sc2nc(-c3ccc(Cl)cc3)nn12 | active: 1%
Cc1ccc(-c2cnc(NCc3ccc(C(C)C)cc3)n2C)cc1 | active: -13%
O=C(NCc1cccc(Br)c1)c1ccc(-n2cnc3cccnc32)cc1 | inactive: 140%
Cc1ccc(CNC(=O)COCc2cc(-c3ccc4c(c3)OCO4)on2)cc1 | inactive: 78%
CCOc1ccc(S(=O)(=O)c2cn(Cc3ccc(C)cc3)c3ccc(OC)cc3c2=O)cc1 | inactive: 127%
CCOc1ccc2cc(-c3nnc(Nc4ccccc4F)s3)c(=O)oc2c1 | inactive: 72%
COc1ccc(C(C(=O)NCc2ccccc2)N(C(=O)Cn2nnc3ccccc32)c2ccc(F)cc2)cc1 (stereo not drawn) | inactive: 88%
Cc1cccc(-c2noc(CNC(=O)c3ccc(C)cc3C)n2)c1 | inactive: 89%
Cc1ccc(-n2ncc3c(N4CCC(C)CC4)ncnc32)cc1C | inactive: 71%
COc1ccc(-c2c[n+](=O)c3c(n2[O-])CCC3)cc1 | inactive: 103%
Cc1ccc(Cl)cc1N1CCN(C(=O)c2cn(C)c3ccc(S(=O)(=O)N4CCC(C)CC4)cc3c2=O)CC1 | inactive: 90%

SMILES | survival
COc1ccc(NCc2nc3ccccc3n2CCOc2ccc(C)cc2)cc1 | active: -18%
O=C(NCC(c1ccc(Cl)cc1)N1CCCCC1)c1ccccc1 (stereo not drawn) | inactive: 85%
Cc1cccc(NC(=O)C2CCCN(c3nnc(-n4c(C)ccc4C)s3)C2)c1C (stereo not drawn) | inactive: 76%
CCOc1cccc(C2c3[nH]c4ccccc4c3CCN2C(=O)CCc2ccccc2)c1 (stereo not drawn) | inactive: 76%
CCOC(=O)c1nc(Nc2ccccc2C)c2ccccc2n1 | inactive: 77%
O=C(Nc1nc2ccc(Cl)cc2s1)c1ccc(S(=O)(=O)N2CCCC2)cc1 | inactive: 121%
CCN(CC)c1ccc(C(=O)N2CCC(c3ccncc3)CC2)cc1 | inactive: 85%
CCN(CC)S(=O)(=O)c1ccc2nc(NC(=O)c3ccc(Br)o3)sc2c1 | inactive: 79%
CCCC1(C(=O)OCC)NC(c2ccccc2F)C2C(=O)N(c3ccccc3)C(=O)C21 (stereo not drawn) | inactive: 94%
CCCN(C(=O)Cn1c(=O)oc2cc(Cl)ccc21)c1ccc(C(C)C)cc1 | active: 8%
COc1ccc(C)cc1NC(=O)CN1C(=O)COc2ccc(S(=O)(=O)N3CCCCCC3)cc21 | inactive: 90%
CCOC(=O)C1CCCN(C(=O)c2ccc3c(c2)N(Cc2cccc(Cl)c2)C(=O)c2ccccc2S3(=O)=O)C1 (stereo not drawn) | inactive: 75%
COc1ccc(-n2ncc3c(=O)n(CC(=O)N4CC(C)CC(C)C4)cnc32)cc1 (stereo not drawn) | inactive: 109%
CCc1ccc(S(=O)(=O)c2cn(C)c3cc(OC)c(OC)cc3c2=O)cc1 | inactive: 129%
CCC1CCc2c(sc(NC(=O)C3c4ccccc4Oc4ccccc43)c2C#N)C1 (stereo not drawn) | inactive: 79%
O=C(CN1C(=O)COc2ccc(S(=O)(=O)N3CCCCC3)cc21)NCc1ccccc1Cl | inactive: 99%
Cc1ccc(C)c(CN2C(=O)c3ccccc3S(=O)(=O)c3ccc(C(=O)N4CCN(C)CC4)cc32)c1 | inactive: 93%
Cc1cc(Nc2cc(Cl)ccc2C)n2nc(Cc3ccccc3)nc2n1 | inactive: 73%
Cc1cc(C)c(S(=O)(=O)NCC(c2ccc(N(C)C)cc2)N2CCc3ccccc32)c(C)c1 (stereo not drawn) | inactive: 101%
CCOc1ccccc1CNC(=O)CSc1n[nH]c(-c2ccccc2Cl)n1 | inactive: 72%
COc1ccc(CNC(=O)Cc2coc3ccc(C(C)C)cc23)cc1 | inactive: 93%
CCC(=O)Nc1nc(C)c(-c2csc(Nc3ccc(S(N)(=O)=O)cc3)n2)s1 | inactive: 128%
